Laboratory results: PubChem BioAssay AID1347428 (National Center for Advancing Translational Sciences (NCATS), 2020)
Screen size: about 91,000 compounds; about 290 (0.32%) were called active. Inconclusive means that the source gave no clear call. Such entries were picked first, then a sample of the others. The call rests on the fitted dose curve; in most records, active means well fitted inhibition curve with a large enough effect; inconclusive means small, poorly fitted or top-dose-only effect; inactive means no such curve, though single readings can be large or run the other way. Potencies beside an inconclusive call are fits to weak or partial responses and may not hold up.

Biological target: Single-stranded DNA cytosine deaminase (Homo sapiens) (UniProt Q9GZX7)
UniProt Q9GZX7, sequence (Q9GZX7 whole entry, looked up): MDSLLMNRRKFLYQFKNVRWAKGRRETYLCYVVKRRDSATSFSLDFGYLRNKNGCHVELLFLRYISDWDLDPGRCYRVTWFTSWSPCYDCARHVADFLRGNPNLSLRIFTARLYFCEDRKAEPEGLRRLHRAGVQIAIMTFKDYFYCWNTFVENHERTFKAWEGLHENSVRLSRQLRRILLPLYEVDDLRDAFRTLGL
Assay: Primary qHTS assay for inhibitors of Activation Induced Cytidine Deaminase (AID): AID signal; further: nearly all actives have a fitted effect of over 25% in size
Conditions: AID deamination FRET fluorescence, UDG-coupled, 4 h; activity change, negative = inhibition: at 115 µM (top of the series)
On the % scale 0 is the no-effect control and ±100 the full control effect; potency means the concentration at half of the fitted maximal effect; tags describe the fitted curve by direction and shape.

| SMILES | Potency | activity change, negative = inhibition |
| --- | --- | --- |
| CCN(CC)CCn1c(=N)n(CCOc2ccccc2Cl)c2ccccc21 | inconclusive: 50.1 µM [inhibitor, partial curve, poor fit] |  |
| Cc1ccc(-n2c(=O)c3cccnc3n2CC(=O)Nc2ccc(C)cc2Cl)cc1 | inconclusive: 89.1 µM [inhibitor, single point] |  |
| Cc1c(Cl)cccc1NC(=O)CSc1nc(=O)[nH]c2c1CCCC2 | inconclusive: 39.8 µM [inhibitor, single point] |  |
| CN(C)CCNC(=S)NCc1cccs1 |  | inactive: 10.8% |
| Cc1cc(C)cc(OCC(=O)N(Cc2ccc(Cl)cc2)C2CCS(=O)(=O)C2)c1 (centres undefined) | inconclusive: 20 µM [inhibitor, partial curve, poor fit] |  |
| CCCN1CCN(CCCNC(=O)c2ccc3c(c2)sc2nc(-c4ccc(OCC)cc4)cn23)CC1 | inconclusive: 56.2 µM [inhibitor, partial curve, poor fit] |  |
| Cc1nc(-c2ccc(F)cc2)sc1CCNC(=O)c1ccc(OC(C)C)cc1 | inconclusive: 35.5 µM [inhibitor, full curve, poor fit] |  |
| CC(C)(C)c1ccc(C(=O)Nc2ccc(OCc3cc(=O)n4ccsc4n3)cc2)cc1 |  | inactive: 3.77% |
| Cc1ccccc1COC(=O)/C=C/c1ccc2ccccc2n1 |  | inactive: -6.55% |
| Cc1ccc2c(c1)-c1c(cnn1CC(=O)N1CCN(c3cc(C)ccc3C)CC1)CO2 | active: 39.8 µM |  |
| COc1cc2c(=O)c(C(=O)c3ccc(F)cc3)cn(Cc3cccc(F)c3)c2cc1OC | inconclusive: 79.4 µM [inhibitor, partial curve, poor fit] |  |
| COc1ccccc1CNc1ncnc2c1c(-c1ccccc1)cn2-c1ccc(Br)cc1 | inconclusive: 39.8 µM [inhibitor, partial curve, poor fit] |  |
| CCc1ccc(Nc2c3c(nc4ccccc24)CCCC3)cc1 | inconclusive: 79.4 µM [inhibitor, partial curve, poor fit] |  |
| O=C(c1cnc2c(cnn2Cc2ccccc2)c1)N1CCCc2ccccc21 |  | inactive: -6.61% |
| COc1ccc(OC)c(NC(=O)N2CC(C)Oc3ccc(C)cc32)c1 (centres undefined) | inconclusive: 79.4 µM [inhibitor, partial curve] |  |
| CCc1c(C)sc(NC(=O)c2cccc(OC)c2)c1C#N |  | inactive: 16.6% |
| Cc1ccc(-c2n[nH]c3c2C(c2ccccc2Cl)N(c2ccc(C(=O)O)cc2)C3=O)cc1 (centres undefined) | inconclusive: 50.1 µM [inhibitor, partial curve, poor fit] |  |
| CCCOc1ccc(C2=NC(c3ccncc3)=Nc3ccc(C)cc3N2)cc1 | inconclusive: 79.4 µM [inhibitor, partial curve] |  |
| CCOc1ccc(NC(=O)Cn2c(=O)cc(C)c3c(C)nn(C)c32)cc1 |  | inactive: 4.68% |
| Cc1ccccc1C(=O)NC(C)c1nc(-c2ccccc2Cl)no1 (centres undefined) |  | inactive: -7.5% |
| COCc1ccccc1NS(=O)(=O)c1cc(C(=O)O)cc2c1CCC2 |  | inactive: -0.776% |
| CCc1ccccc1NC(=O)Cn1c(=O)n(Cc2ccccc2)c(=O)c2c(C)c(C(=O)N(C)C)sc21 | inconclusive: 89.1 µM [inhibitor, single point] |  |

| SMILES | Potency | activity change, negative = inhibition |
| --- | --- | --- |
| CCc1ccc(CNC(=O)c2cnc(N3CCCCC3)c3ccccc23)cc1 | inconclusive: 15.8 µM [inhibitor, full curve, poor fit] |  |
| COc1ccc(C(=O)N2CC(=O)Nc3ccc(C)cc3C2c2ccc(F)cc2)c(OC)c1 (centres undefined) | inconclusive: 20 µM [inhibitor, full curve, poor fit] |  |
| CCc1ccccc1OCCSc1nc(-c2cccs2)nc2cc(=O)[nH]n12 | inconclusive: 28.2 µM [inhibitor, full curve, poor fit] |  |
| CCOc1ccc(NC(=O)N(Cc2ccc(CC)cc2)Cc2cn[nH]c2-c2ccc(OC)cc2)cc1 | inconclusive: 22.4 µM [inhibitor, full curve] |  |
| Cc1ccc(C(C)C)c(OCC(=O)Nc2cccc(-c3nc4ncccc4o3)c2)c1 | inconclusive: 28.2 µM [inhibitor, single point] |  |
| CCOc1ccc(C(=O)N2CCC(c3nc(-c4ccc(S(=O)(=O)N5CCCC5)cc4)no3)CC2)cc1 | inconclusive: 12.6 µM [inhibitor, full curve, poor fit] |  |
| Cc1cccc(C(=O)NC2CCCCCC2)n1 |  | inactive: 4.28% |
| Cc1cc(N2CCN(c3cccc(C(F)(F)F)c3)CC2)n2nc(-c3ccccc3C)nc2n1 | inconclusive: 10 µM [inhibitor, partial curve, poor fit] |  |
| Cc1ccc(OCC(=O)N(Cc2ccc(Cl)cc2)CC2CCCO2)cc1C (centres undefined) | inconclusive: 50.1 µM [inhibitor, partial curve, poor fit] |  |
| CNC(=O)NC(=O)C(Cl)c1ccccc1 (centres undefined) |  | inactive: 2.73% |
| COc1ccc(C2C=C(c3ccccc3)Nc3nc(NS(=O)(=O)c4ccc(C)cc4)nn32)cc1 (centres undefined) |  | inactive: -16.3% |
| Cc1ccc2c(C)c(C(=O)N3CCC(c4nc5ccccc5s4)CC3)oc2c1C | inconclusive: 31.6 µM [inhibitor, single point] |  |
| COc1ccc(Nc2c(-c3ccco3)nc3cccc(C)n23)cc1 | inconclusive: 79.4 µM [inhibitor, partial curve, poor fit] |  |
| Cc1ccc(C)c(-c2ccc(=O)n(Cc3ccc(F)cc3Cl)n2)c1 | active: 31.6 µM |  |
| O=C(CSc1nc2c([nH]c3ccccc32)c(=O)n1-c1cccc(Cl)c1)NCc1ccccc1 | inconclusive: 3.16 µM [inhibitor, full curve, poor fit] |  |
| COc1ccc(-c2nc(C)c(CCNC(=O)c3ccco3)s2)cc1 | inconclusive: 35.5 µM [inhibitor, partial curve, poor fit] |  |
| COc1ccc(OCCn2cc(C(=O)c3ccco3)c3ccccc32)cc1 | inconclusive: 39.8 µM [inhibitor, full curve, poor fit] |  |
| Cc1ccc(-c2noc(CN(C3CCCCC3)S(=O)(=O)c3ccc(F)cc3)n2)cc1 | inconclusive: 79.4 µM [inhibitor, partial curve, poor fit] |  |
| Cc1oc2ccc(O)c(CN3CCN(C)CC3)c2c1C(=O)Nc1ccc(C(C)C)cc1 |  | inactive: -4.26% |
| CSc1cccc(NC(=O)C(c2ccccc2)N2Cc3ccccc3C2=O)c1 (centres undefined) | inconclusive: 35.5 µM [inhibitor, full curve] |  |
| COc1ccc(-c2cc(C(F)(F)F)nc(NCCc3ccccc3)n2)cc1 | inconclusive: 39.8 µM [inhibitor, full curve, poor fit] |  |
| O=C(Cc1scnc1-c1cccs1)NCCc1ccccc1F |  | inactive: 4.66% |

| SMILES | Potency | activity change, negative = inhibition |
| --- | --- | --- |
| Cc1cc(C)c(/C=C/c2onc(C)c2S(=O)(=O)N2CCC(C(=O)Nc3ccc(Cl)c(C(F)(F)F)c3)CC2)c(C)c1 | inconclusive: 39.8 µM [inhibitor, partial curve, poor fit] |  |
| CC(C)=CCOc1ccc2c(=O)c(Oc3ccccc3)c(C)oc2c1 | inconclusive: 44.7 µM [inhibitor, partial curve, poor fit] |  |
| Cc1ccc(CNC(=O)CN2CCCN(Cc3ccc(F)cc3)S2(=O)=O)cc1 | inconclusive: 15.8 µM [inhibitor, partial curve, poor fit] |  |
| CCN(CC)S(=O)(=O)c1ccc(C)c(NC(=O)c2nn(-c3ccccc3)c(=O)c3ccccc23)c1 |  | inactive: -9.31% |
| CC(=O)N1N=C(c2c(-c3ccccc3)c3cc(Cl)ccc3n(C)c2=O)CC1c1cccs1 (centres undefined) | active: 44.7 µM |  |
| COc1ccc(/C=C/C(=O)Nc2ccc3nc(N4CCCCC4)cc(C)c3c2)cc1OC | inconclusive: 15.8 µM [inhibitor, full curve, poor fit] |  |
| CCCCc1nc2ccccc2n1CC(=O)N(COCC)c1c(C)cccc1CC | inconclusive: 79.4 µM [inhibitor, single point] |  |
| O=C(CCC1N=C2c3ccccc3N=C(SCc3ccc(F)cc3)N2C1=O)NC1CCCCC1 (centres undefined) | inconclusive: 10 µM [inhibitor, full curve, poor fit] |  |
| COc1cc2cc(CNc3ccccc3)c(=O)n(CC(=O)Nc3cc(C)cc(C)c3)c2cc1OC | inconclusive: 28.2 µM [inhibitor, full curve, poor fit] |  |
| COc1ccccc1Nc1nn2c(=O)c3ccc(C(=O)NC(C)c4ccccc4)cc3nc2s1 (centres undefined) | inconclusive: 3.55 µM [inhibitor, full curve, poor fit] |  |
| CCOc1cc(C(c2c(C)[nH][nH]c2=O)c2c(C)[nH][nH]c2=O)ccc1OCc1ccc(F)cc1 | inconclusive: 50.1 µM [inhibitor, partial curve, poor fit] |  |
| COc1ccc(C2c3[nH]c4ccc(OC)cc4c3CCN2C(=O)Nc2ccccc2)cc1 (centres undefined) | inconclusive: 39.8 µM [inhibitor, single point] |  |
| O=C(Nc1c(Cl)cccc1Cl)c1cc(-c2cccc(O)c2)on1 |  | inactive: -1.69% |
| Cc1ccc(CN(C)C(=O)CSc2nc(-c3cccs3)nc3ccccc23)o1 | inconclusive: 20 µM [inhibitor, full curve, poor fit] |  |
| O=C(/C=C/c1cn(CC(O)CN2CCCCCC2)c2ccccc12)c1ccc(Br)cc1 (centres undefined) | inconclusive: 50.1 µM [inhibitor, partial curve, poor fit] |  |
| Cc1c2occ(C(C)(C)C)c2cc2c3c(/c(=N\O)oc12)CCCC3 |  | inactive: -13% |
| CCc1c(C(=O)NCCC23CC4CC(CC(C4)C2)C3)csc1C |  | inactive: -5.23% |
| CCCCNc1nc2c(c(=O)n(Cc3ccc(Cl)c(Cl)c3)c(=O)n2C)n1C | inconclusive: 35.5 µM [inhibitor, full curve, poor fit] |  |
| Cc1cc(-c2nn3c(-c4ccccn4)nnc3s2)c2ccccc2n1 |  | inactive: -2.63% |
| O=C(NCCc1csc2nc(-c3cccc(F)c3)nn12)c1ccc(Br)o1 |  | inactive: -20.3% |
